Laboratory results: paper PMC8497992, “Structural and functional characterization explains loss of dNTPase activity of the cancer-specific R366C/H mutant SAMHD1 proteins” (The Journal of Biological Chemistry, 2021)

B1: SAMHD1 HD domain ([…]) R366H (domain or fragment)
chain: not shown
notes: SAMHD1, HD domain, […], with the cancer-associated mutation R366H (colon cancer); Made by QuikChange on pet14b-SAMHD1; also called R366C/H mutants; source: E. coli Rosetta DE3, purified (HisTrap FF, Superdex 200)
B2: SAMHD1 HD domain ([…]) R366C (domain or fragment)
chain: not shown
notes: SAMHD1, HD domain, […], with the cancer-associated mutation R366C (colon cancer and leukemia); Made by QuikChange on pet14b-SAMHD1; also called R366C/H mutants; source: E. coli Rosetta DE3, purified (HisTrap FF, Superdex 200)

Biological target: the molecule itself
Assay: cross-linking; formaldehyde cross-linking of 10 uM HD domain protein with 2 mM dGTP (activator); 50 mM Hepes 7.4, 20% glycerol, 150 mM KCl, 1 mM beta-mercaptoethanol, 250 mM KCl, 25 mM MgCl2; equal amount of 2% formaldehyde, 37 °C 15 min; SDS-PAGE; monomer to tetramer

| Protein | stoichiometry N |
| --- | --- |
| B1 | 4 |
| B2 | 4 |
